Laboratory results as given in PMC7368075.
These are yes or no findings as the source states them, for the method shown. Binding seen in cells or lysates may run through a third protein. Some binding calls cover weakened binding; strength is not graded here.

By UniProt entry, the sequences of proteins in these tests, tags left out. Where a name states a change or a piece, a line headed by the entry shows the natural chain unless it says otherwise. Residues count along the entry.
UniProt Q9H792: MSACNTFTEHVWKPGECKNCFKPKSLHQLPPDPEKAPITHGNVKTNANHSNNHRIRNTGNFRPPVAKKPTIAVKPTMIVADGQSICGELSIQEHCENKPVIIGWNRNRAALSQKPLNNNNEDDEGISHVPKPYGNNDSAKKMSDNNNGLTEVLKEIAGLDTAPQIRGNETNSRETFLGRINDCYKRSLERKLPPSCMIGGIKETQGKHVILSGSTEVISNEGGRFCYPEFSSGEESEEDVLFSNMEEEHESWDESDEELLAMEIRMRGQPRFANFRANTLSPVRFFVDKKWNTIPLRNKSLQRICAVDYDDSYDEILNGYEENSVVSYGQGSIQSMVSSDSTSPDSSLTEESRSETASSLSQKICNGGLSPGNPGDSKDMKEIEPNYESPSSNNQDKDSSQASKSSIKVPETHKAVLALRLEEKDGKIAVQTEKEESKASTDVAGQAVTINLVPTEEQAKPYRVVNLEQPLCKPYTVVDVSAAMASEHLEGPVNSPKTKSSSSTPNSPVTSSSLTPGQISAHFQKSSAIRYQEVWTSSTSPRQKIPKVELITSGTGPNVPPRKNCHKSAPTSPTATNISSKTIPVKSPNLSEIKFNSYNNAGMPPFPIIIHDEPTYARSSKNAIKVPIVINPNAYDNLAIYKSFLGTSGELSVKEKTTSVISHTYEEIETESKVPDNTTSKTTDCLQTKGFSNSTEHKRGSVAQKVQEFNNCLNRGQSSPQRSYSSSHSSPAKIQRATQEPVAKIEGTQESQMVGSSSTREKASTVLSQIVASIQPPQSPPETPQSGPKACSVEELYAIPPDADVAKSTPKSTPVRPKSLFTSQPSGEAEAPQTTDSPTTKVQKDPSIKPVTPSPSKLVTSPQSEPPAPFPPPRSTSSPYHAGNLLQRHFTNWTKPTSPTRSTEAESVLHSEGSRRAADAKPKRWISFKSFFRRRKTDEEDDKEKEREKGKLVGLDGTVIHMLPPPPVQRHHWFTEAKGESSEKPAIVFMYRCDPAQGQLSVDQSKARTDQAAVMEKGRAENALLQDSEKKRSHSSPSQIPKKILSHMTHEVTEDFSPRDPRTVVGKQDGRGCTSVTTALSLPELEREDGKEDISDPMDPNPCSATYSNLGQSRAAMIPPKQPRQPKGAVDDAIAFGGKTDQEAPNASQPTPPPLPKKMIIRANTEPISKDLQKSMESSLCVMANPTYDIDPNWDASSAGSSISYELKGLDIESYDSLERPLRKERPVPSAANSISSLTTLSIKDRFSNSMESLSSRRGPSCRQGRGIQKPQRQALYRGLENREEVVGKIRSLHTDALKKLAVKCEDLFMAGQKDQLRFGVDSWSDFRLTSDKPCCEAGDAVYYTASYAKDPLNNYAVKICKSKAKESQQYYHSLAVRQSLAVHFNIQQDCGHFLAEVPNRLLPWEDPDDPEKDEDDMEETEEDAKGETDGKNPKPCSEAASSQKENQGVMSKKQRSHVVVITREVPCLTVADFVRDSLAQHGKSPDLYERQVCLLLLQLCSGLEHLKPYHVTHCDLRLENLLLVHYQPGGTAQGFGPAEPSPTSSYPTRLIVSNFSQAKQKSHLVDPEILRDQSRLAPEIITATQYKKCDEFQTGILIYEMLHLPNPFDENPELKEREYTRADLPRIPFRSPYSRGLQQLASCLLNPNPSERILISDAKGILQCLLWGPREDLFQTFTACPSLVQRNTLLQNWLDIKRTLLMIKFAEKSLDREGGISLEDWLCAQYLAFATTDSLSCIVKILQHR
UniProt P46108: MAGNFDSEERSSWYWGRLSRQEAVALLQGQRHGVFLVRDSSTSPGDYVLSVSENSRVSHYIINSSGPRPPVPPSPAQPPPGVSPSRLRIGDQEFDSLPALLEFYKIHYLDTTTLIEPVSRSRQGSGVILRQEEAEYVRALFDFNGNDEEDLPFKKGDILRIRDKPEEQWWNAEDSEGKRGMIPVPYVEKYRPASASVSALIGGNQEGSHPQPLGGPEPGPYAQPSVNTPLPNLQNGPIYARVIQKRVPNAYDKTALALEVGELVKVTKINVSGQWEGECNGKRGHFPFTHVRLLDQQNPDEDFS
UniProt P41240: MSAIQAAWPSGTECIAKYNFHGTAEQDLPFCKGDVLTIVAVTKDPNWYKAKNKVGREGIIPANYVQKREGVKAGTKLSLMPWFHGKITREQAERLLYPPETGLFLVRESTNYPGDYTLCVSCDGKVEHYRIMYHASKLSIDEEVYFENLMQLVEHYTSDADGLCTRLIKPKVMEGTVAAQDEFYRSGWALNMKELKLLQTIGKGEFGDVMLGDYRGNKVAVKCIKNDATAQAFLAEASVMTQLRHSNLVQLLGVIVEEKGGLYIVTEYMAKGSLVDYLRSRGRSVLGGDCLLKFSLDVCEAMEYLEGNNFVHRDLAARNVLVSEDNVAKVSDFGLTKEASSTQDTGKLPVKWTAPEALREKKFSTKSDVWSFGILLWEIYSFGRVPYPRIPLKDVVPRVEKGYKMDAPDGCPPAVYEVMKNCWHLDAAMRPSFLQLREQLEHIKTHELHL
UniProt P30530, residues 26-894: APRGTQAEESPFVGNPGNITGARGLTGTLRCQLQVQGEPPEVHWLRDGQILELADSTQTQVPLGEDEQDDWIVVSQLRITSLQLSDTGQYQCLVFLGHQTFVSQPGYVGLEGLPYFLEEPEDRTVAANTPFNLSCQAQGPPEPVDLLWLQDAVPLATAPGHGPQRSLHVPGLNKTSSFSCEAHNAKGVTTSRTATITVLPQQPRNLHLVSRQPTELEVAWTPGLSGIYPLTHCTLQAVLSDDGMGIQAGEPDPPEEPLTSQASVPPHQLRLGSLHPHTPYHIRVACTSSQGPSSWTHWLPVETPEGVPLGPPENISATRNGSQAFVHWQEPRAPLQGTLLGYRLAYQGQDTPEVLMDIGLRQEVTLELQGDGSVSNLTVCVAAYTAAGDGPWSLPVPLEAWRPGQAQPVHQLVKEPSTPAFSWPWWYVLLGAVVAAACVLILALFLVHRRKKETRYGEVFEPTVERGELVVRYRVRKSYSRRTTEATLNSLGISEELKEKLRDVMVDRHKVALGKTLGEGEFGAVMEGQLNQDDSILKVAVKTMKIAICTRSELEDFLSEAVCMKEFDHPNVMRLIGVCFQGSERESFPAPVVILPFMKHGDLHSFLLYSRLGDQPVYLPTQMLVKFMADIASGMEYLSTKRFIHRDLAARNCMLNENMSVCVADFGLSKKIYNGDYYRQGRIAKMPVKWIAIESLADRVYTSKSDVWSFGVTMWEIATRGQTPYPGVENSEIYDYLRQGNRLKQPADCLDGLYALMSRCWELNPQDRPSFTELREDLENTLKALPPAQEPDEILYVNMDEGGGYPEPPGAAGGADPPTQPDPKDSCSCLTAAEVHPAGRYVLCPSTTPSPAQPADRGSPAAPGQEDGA
UniProt Q14155: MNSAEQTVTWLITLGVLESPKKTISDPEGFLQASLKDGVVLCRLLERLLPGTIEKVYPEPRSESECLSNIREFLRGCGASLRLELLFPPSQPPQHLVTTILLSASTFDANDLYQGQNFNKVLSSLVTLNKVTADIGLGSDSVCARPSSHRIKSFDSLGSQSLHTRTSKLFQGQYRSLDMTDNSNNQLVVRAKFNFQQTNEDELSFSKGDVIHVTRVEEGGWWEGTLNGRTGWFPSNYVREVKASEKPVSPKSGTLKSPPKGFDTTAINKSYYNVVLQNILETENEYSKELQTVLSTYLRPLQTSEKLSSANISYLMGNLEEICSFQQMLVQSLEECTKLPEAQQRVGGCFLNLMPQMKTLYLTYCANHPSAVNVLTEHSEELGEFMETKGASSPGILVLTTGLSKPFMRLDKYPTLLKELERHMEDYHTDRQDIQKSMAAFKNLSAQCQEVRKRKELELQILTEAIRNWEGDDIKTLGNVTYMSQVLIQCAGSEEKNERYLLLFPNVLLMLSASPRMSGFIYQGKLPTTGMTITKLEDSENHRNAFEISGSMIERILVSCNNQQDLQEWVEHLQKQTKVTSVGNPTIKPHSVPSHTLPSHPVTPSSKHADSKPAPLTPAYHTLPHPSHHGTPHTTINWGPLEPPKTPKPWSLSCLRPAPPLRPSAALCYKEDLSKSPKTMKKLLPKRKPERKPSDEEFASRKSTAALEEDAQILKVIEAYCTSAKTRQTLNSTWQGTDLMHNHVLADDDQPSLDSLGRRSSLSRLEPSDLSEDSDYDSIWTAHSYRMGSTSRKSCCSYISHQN
UniProt P49023: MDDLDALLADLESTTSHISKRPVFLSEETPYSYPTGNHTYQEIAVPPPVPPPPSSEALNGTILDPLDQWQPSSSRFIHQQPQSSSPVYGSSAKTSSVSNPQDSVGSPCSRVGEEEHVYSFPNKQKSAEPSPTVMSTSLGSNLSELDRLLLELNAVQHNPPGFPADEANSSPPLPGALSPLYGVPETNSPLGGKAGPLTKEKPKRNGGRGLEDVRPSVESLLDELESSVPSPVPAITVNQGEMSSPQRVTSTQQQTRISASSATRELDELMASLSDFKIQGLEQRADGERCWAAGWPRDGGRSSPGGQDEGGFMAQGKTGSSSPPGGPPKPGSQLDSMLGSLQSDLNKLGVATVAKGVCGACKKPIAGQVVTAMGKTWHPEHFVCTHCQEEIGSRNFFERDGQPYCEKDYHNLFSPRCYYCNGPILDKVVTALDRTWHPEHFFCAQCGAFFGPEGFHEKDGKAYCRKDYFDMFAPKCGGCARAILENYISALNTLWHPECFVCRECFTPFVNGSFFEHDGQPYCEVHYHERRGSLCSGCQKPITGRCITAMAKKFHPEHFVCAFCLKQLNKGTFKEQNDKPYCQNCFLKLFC

What was measured:
[1] = target: T1, NEDD9 (human (endogenous in MDA-MB-231)) (UniProt Q14511); test: co-IP; endogenous proteins; lysates of MDA-MB-231 cells (control or 100 nM siAXL); anti-NEDD9 immunoprecipitation, CRKII by western blot; 1 mg lysate, 3 h, 4 °C
T1 sequence: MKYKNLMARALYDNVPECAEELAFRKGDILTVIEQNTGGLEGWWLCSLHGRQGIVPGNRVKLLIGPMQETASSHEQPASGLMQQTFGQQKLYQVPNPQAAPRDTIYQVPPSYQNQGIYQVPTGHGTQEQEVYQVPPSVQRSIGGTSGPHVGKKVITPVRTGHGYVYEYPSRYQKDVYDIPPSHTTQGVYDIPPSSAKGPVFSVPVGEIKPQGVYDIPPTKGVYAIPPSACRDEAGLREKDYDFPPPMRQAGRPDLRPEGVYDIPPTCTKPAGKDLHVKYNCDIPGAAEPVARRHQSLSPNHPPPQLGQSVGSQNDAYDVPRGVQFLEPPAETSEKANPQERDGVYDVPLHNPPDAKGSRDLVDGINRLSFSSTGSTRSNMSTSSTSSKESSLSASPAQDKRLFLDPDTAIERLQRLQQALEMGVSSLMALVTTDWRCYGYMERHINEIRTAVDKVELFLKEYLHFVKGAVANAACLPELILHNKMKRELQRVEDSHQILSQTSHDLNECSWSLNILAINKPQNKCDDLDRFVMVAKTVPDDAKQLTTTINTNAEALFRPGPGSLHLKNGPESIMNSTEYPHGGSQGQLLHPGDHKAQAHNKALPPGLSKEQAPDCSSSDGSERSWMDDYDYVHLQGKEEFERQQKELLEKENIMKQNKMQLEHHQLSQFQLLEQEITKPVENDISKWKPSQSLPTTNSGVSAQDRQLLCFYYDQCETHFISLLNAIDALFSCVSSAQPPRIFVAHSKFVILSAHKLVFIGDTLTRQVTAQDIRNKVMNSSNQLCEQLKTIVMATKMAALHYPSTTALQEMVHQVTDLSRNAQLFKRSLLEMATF

[2] = target: T2, NEDD9 (co-IP with PEAK1, construct not told) (UniProt Q14511); test: co-IP; only mentioned, no figure; cells and constructs not told
T2 sequence: T1 sequence

Myc-PEAK1 (human) = Myc-PEAK1 (human) (UniProt Q9H792); test: co-IP; co-IP of Supplementary Fig. 6f and 7l, m; cells, plasmids and precipitating antibody not told in the text shown
GFP-CRKII [3] = target: GFP-CRKII (UniProt P46108); test: condition: only AXL kinase dead co-expressed instead of AXL WT; co-IP; lysates of 293T cells expressing the indicated plasmids with AXL kinase dead instead of AXL WT; anti-GFP immunoprecipitation, Myc-PEAK1 by western blot (Fig. 6d)
GFP-CRKII [4] = target: GFP-CRKII (UniProt P46108); test: co-IP; lysates of 293T cells expressing the indicated plasmids (Fig. 6b; Fig. 6d with AXL WT); anti-GFP immunoprecipitation, Myc-PEAK1 by western blot
[5] = target: CRKII as GST fusion (GST pulldown) (UniProt P46108); test: pull-down; GST beads incubated with 1 mg of protein lysate for 2 h at 4 °C, western blot (Supplementary Fig. 5c); only the target purified
Myc-CRKII = Myc-CRKII (UniProt P46108); test: co-IP; lysates of 293T cells expressing the indicated plasmids (with or without AXL WT or kinase dead in Fig. 6g); anti-Myc immunoprecipitation, western blot
[6] = target: CSK (human (endogenous in MDA-MB-231)) (UniProt P41240); test: co-IP; endogenous proteins; lysates of MDA-MB-231 cells treated or not with 1 µM R428; anti-CSK immunoprecipitation, PEAK1 by western blot
[7] = target: AXL (human (endogenous in MDA-MB-231 and Hs578T)) (UniProt P30530); test: proximity ligation; DuoLink in situ PLA on fixed, permeabilised MDA-MB-231 cells; endogenous proteins

With CRKII (from UniProt P46108-1 1-304) the binding [1] was “binds”.
For “PEAK1 (co-IP with NEDD9, construct not told) (from UniProt Q9H792 1-1746)”, the binding [2] was “no binding”.
For βPIX (from UniProt Q14155 1-803), the binding (Myc-PEAK1 (human)) was “binds”.
In the case of Myc-PEAK1 (from UniProt Q9H792 1-1746), the binding (GFP-CRKII [3]) is reported as “no binding”, the binding (GFP-CRKII [4]) is reported as “binds” and the binding [5] is reported as “binds”.
For GFP-PXN (from UniProt P49023 1-591), the binding (Myc-CRKII) was “binds”.
With PEAK1 (from UniProt Q9H792 1-1746) the binding [6] was “binds” and the binding [7] was “binds”.
